# Among all 310,000 compounds or so, about 2,200 (0.71%) showed an effect of 50% or more. The effect is printed as a negative number. The list shows a part of the results.
# Biological target: human ether-à-go-go-related gene (hERG) potassium channel (human, UniProt Q12809)
# Assay: primary screen, population patch clamp on CHO cells stably expressing hERG
# Chain of human ether-à-go-go-related gene (hERG) potassium channel (Q12809 whole entry, looked up): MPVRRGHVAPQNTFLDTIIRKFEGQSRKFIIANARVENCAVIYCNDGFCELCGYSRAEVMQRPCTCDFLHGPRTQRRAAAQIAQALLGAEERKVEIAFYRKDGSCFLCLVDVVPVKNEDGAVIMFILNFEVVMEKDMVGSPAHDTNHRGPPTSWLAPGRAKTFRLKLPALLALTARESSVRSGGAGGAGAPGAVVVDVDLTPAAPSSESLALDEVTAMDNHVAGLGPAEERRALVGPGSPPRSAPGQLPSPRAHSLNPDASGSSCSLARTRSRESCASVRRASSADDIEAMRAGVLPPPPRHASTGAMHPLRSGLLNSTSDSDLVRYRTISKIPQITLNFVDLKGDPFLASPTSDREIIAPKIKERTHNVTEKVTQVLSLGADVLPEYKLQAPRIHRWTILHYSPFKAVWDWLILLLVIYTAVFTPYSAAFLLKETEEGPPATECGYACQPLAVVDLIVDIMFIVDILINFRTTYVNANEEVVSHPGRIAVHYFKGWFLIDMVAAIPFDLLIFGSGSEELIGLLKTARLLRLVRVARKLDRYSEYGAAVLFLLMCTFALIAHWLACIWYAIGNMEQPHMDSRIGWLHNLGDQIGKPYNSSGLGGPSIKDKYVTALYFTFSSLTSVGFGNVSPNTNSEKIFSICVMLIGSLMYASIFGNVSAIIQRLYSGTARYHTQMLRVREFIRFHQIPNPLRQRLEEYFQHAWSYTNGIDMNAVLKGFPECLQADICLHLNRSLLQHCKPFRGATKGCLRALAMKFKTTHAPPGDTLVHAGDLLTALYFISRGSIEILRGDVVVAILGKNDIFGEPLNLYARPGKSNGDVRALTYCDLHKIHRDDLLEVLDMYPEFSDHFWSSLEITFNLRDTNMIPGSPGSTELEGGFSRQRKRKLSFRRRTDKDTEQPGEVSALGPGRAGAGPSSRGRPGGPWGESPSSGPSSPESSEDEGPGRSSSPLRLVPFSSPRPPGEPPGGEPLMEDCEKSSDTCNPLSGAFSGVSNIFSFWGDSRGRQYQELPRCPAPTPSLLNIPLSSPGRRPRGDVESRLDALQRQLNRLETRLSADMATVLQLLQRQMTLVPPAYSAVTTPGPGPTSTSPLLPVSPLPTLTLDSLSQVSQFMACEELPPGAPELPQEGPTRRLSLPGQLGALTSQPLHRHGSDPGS
row,SMILES,"hERG current change (%, negative = inhibition) at 1uM [%]"
1,O=C(C1CCN(S(=O)(=O)N2CCC3(CC2)OCCO3)CC1)N1CCCCC1,8.17
2,NNC(=O)c1ccc(O)cc1O,5.07
3,COc1cccc(-n2nnnc2SCC(=O)NC2CCCCC2)c1,10.2
4,COc1ccc(CC(=O)OCc2cc(=O)n3cc(Br)ccc3n2)cc1OC,0.469
5,COc1ccc(S(=O)(=O)N2CCN(CCOc3ccccc3Cl)CC2)cc1OC,7.22
6,Cc1cc2nc(-c3ccc(SCC(=O)Nc4ccc5c(c4)OCCO5)nc3)[nH]c2cc1C,9.17
7,COc1ccccc1NC(=O)c1sc(Cl)nc1C,7.76
8,Cc1nc(NC(=O)COC(=O)CCC(=O)c2cccs2)c(Cl)cc1Cl,21.6
9,O=C(c1cnc2sccn2c1=O)N1CCc2ccccc2C1,10.2
10,Cc1ccccc1Cn1nnc(C(=O)Nc2cccc(C)c2C)c1N,2.8
11,CSc1ccccc1NC(=O)COC(=O)Cc1cccs1,11.4
12,C=CCn1c(SCC(=O)Nc2c(C)nn(Cc3ccccc3)c2C)nnc1C(O)c1ccccc1 (stereo not shown),6.15
13,CCOC(=O)c1sc(-c2ccc(Br)cc2)cc1N,-2.28
14,Cc1cc(C(F)F)n2nc(C(=O)Nc3cc(C)on3)nc2n1,4.95
15,CSc1ccc(-c2nc(CN3CCCCC3c3cccnc3)c(C)o2)cc1 (stereo not shown),-3.12
16,CCC(=O)c1cn(CC(=O)Nc2ccc(C)cc2)c2ccccc12,11.2
17,COc1ccc(NC(=O)C2CCN(S(=O)(=O)c3ccc(N4CCCC4=O)cc3)CC2)cc1OC,5.61
18,O=c1c2cc(N3CCOCC3)ccc2[nH]c(=S)n1CCCN1CCCCCC1,-8.17
19,COc1cc2c(cc1OC)CN(C(=S)NC(=O)c1ccccc1)CC2,9.98
20,O=C(CNc1cc(S(=O)(=O)N2CCOCC2)ccc1NCC1CCCO1)Nc1ccccc1F (stereo not shown),0.0909
21,CC(=O)c1cccc(NC(=O)/C(=C\c2cccnc2)NC(=O)c2ccc(C)cc2)c1,4.57
22,CCN(CC)S(=O)(=O)c1cccc(NC(=O)c2cncc(Br)c2)c1,-18.1

row,SMILES,"hERG current change (%, negative = inhibition) at 1uM [%]"
1,COc1cc(C2C(C(=O)c3ccco3)=C(O)C(=O)N2c2cc(C)on2)ccc1OCc1ccccc1 (stereo not shown),18.3
2,O=C(NCC(c1ccco1)N1CCCC1)c1cccc(S(=O)(=O)Nc2ccc(Br)cc2)c1 (stereo not shown),10.2
3,CCN(CC(=O)Nc1sc2c(c1C#N)CCC(C)C2)CC(=O)NC1CCS(=O)(=O)C1 (stereo not shown),7.74
4,CCOc1ccc(C2c3c(oc4ccccc4c3=O)C(=O)N2c2ccc(C)cn2)cc1OC (stereo not shown),-0.807
5,CCc1ccccc1N(CC(=O)NC(C)(C)CC)C(=O)CCC(=O)Nc1nccs1,3.04
6,COc1ccc(/C=N\NC(=O)CNC(=O)C2COc3ccccc3O2)cc1[N+](=O)[O-] (stereo not shown),-8.06
7,CCCC1COC(Cn2cncn2)(c2ccc(C)cc2)O1 (stereo not shown),8.8
8,COc1ccc(N(C(C)C(=O)N/N=C(\C)C(C)(C)C)S(C)(=O)=O)cc1 (stereo not shown),17.8
9,COc1ccccc1NC(=O)C1CCCN(S(=O)(=O)c2c(C)noc2C)C1 (stereo not shown),8.54
10,COc1c(C)cc(S(=O)(=O)NCCN2CCOCC2)c(C)c1C,6.69
11,CCOC(=O)c1ccc2[nH]c3c(c2c1)CCCC3NC=O (stereo not shown),13.5
12,CN(C/C=C/C#CC(C)(C)C)Cc1cccc2ccccc12.Cl,11.6
13,OCCCNC(=S)Nc1ccc(Oc2ccccc2)cc1,6.92
14,CCCN(CCC)S(=O)(=O)c1ccc(C(=O)Nc2ccc(S(=O)(=O)Nc3nnc(CC)s3)cc2)cc1,14.5
15,Cn1c(=O)n(CCOc2ccc([N+](=O)[O-])cc2)c2ccccc21,-22
16,Cc1ccc(CCNC(=O)CN2C(=O)COc3ccc(S(=O)(=O)N4CCC(C)CC4)cc32)cc1,18
17,CC(C)=CC(=O)N1CCC(N2CCC(C(=O)N3CCOCC3)CC2)CC1,14
18,Br.COc1ccc(Nc2nc(-c3sc(NC(C)=O)nc3C)cs2)cc1,1.94
19,Br.CCOc1ccc(-c2csc(NNC3=NCCCCC3)n2)cc1,2.56
20,CCCCC(=O)N(CCOC)c1nnc(-c2cccnc2)s1,11.3
21,O=C(CN1C(=O)C2C3C=CC(C3)C2C1=O)N1CCc2ccccc2C1 (stereo not shown),8.92
22,CCC(C)N(C(=O)Cn1nnc(-c2ccc(F)cc2)n1)C1CCS(=O)(=O)C1 (stereo not shown),12.3

row,SMILES,"hERG current change (%, negative = inhibition) at 1uM [%]"
1,Cc1ccsc1C1C(C#N)=C(N)Oc2n[nH]c(C)c21 (stereo not shown),13.9
2,Cc1nn(CCO)c(C)c1Oc1ccccc1O,8.63
3,N#Cc1ccccc1NC(=O)CSc1nnc(-c2ccccc2)n1-c1ccccc1,7.56
4,O=C(CN1C(=O)CSc2ccc(S(=O)(=O)N3CCCCC3)cc21)NCc1ccccc1Cl,12.8
5,CCc1nnc(SCC(=O)Nc2nnc(C)s2)n1CC1CCCO1 (stereo not shown),7.27
6,CN(C)c1ccc(C2=NOC(CN3C(=O)c4ccccc4S3(=O)=O)C2)cc1 (stereo not shown),11.2
7,O=C(Cn1cc(C(=O)c2cccs2)c2ccccc21)NCc1cccs1,5.24
8,COC(=O)c1c(NC(=O)Cc2ccccc2)sc2c1CCN(C(C)C)C2.Cl,-8.3
9,Nc1c(C(=O)CSc2nc3ccccc3o2)c(=O)[nH]c(=O)n1C1CC1,8.44
10,CN(C)C(=O)c1cn(CCC#N)nc1-c1ccc2ccccc2c1,18
11,CCc1ccc(NC(=O)C(C)OC(=O)c2ccc(N3CCCC3)c([N+](=O)[O-])c2)cc1 (stereo not shown),-6.79
12,Cc1cc(C)n2nc(CC(=O)NNC(=O)c3ccc(N(C)C)cc3)nc2n1,15.7
13,COc1ccccc1-c1cc(C(=O)NC(C)c2ccccc2)no1 (stereo not shown),10.3
14,CC1CCCN(C(=S)SCC(=O)O)C1 (stereo not shown),4.89
15,CC(C)CCOc1ccccc1C(N)=O,13.6
16,COc1ccc(-n2nc3ccccc3n2)cc1,-5.14
17,Nc1c(C(=O)NCc2ccco2)nnn1CC(=O)Nc1ccc2c(c1)OCO2,-15.3
18,CCN1C(=O)[C@H]2[C@@H](c3ccc(C)cc3)N3C(=O)N(c4ccc(C)cc4)C(=O)[C@@]3(CC)[C@H]2C1=O,8.64
19,CCC(CC)C(=O)N=C1SC2CS(=O)(=O)CC2N1CCc1ccc(OC)c(OC)c1 (stereo not shown),2.8
20,CCCn1c(SCC(=O)Nc2cc(S(=O)(=O)N3CCOCC3)ccc2OC)n[nH]c1=O,6.72
21,O=C(NCc1ccncc1)Nc1cccc([N+](=O)[O-])c1,6.24
22,O=C(Nc1ccccn1)Nc1ccccc1Cl,19.1

row,SMILES,"hERG current change (%, negative = inhibition) at 1uM [%]"
1,Cc1cc(-c2nnc(SCC(=O)Nc3ccccc3)n2C)no1,11.9
2,C=CC[n+]1c(-c2ccc(Cl)cc2Cl)csc1Nc1ccc(NC(C)=O)cc1.[Cl-],8.45
3,CC(C)(C)C(=O)N1N=C(c2ccc(NS(C)(=O)=O)cc2)CC1c1cccs1 (stereo not shown),-4.1
4,FC(F)(F)c1cccc(N/N=C/c2ccccc2)c1,12
5,CC(C)(C)NC(=O)COC(=O)c1ccc(Cl)cc1O,7.18
6,O=C(N/N=C/c1cccs1)c1cccnc1,8.96
7,Cc1ccc2nc(N3CCN(C(=O)CCC(=O)O)CC3)nc(-c3ccccc3)c2c1,9.46
8,CCn1ncc(NC(=S)Nc2ccc(OC)c(OC)c2)c1C(N)=O,22.5
9,CCC/C(=N/NC(=O)c1ccccc1Cl)c1ccccc1,-3.22
10,CC(=O)c1cccc(NC(=O)CN2C(=O)NC(C)(c3ccc4c(c3)OCCCO4)C2=O)c1 (stereo not shown),12.1
11,O=C(CN1CCN(c2ccccn2)CC1)Nc1ccc(F)cc1F,2.38
12,COc1cc(OC)cc(C(=O)Nc2ccccc2C(=O)N2CCCC2)c1,1.26
13,CN(C)/C=C/C(=O)c1ccn(S(=O)(=O)c2ccccc2)c1,10.1
14,CCOC(=O)CSC1=C(C#N)C(c2ccc(F)cc2)C(C(C)=O)=C(C)N1 (stereo not shown),9.13
15,Cc1ccccc1-n1c(C)nnc1SCc1nc2ccccc2s1,5.99
16,CC(=O)c1c[nH]c(C(=O)NCc2cccc(C(F)(F)F)c2)c1,18.7
17,Cc1ccc(NC(=O)c2c(C)noc2-c2snnc2C)cc1,8.36
18,NC(=O)C1(N2CCCCC2)CCN(c2nc(-c3ccccc3)cs2)CC1,-2.02
19,Cc1ccc(-c2nn(-c3ccccc3)cc2/C=N/n2c(-c3ccncc3)n[nH]c2=S)cc1,7.72
20,O=C(N/N=C/c1ccco1)c1cc(=O)[nH]c2ccccc12,10
21,CCc1nc2ccc(C(=O)NCc3ccco3)cc2nc1CC,-0.767
22,O=C(Cn1c(=O)sc2ccccc21)Nc1nc2c(s1)CCCC2,6.76

# From publication PMC4336329 (PLoS ONE, 2015)
